According to the supplement of paper PMC8728848:
The list shows a part of the results.

Key:
Test in all cases: glycan array binding signal (z-score within array); higher = stronger binding
Settings in all cases: glycan notation: IUPAC condensed, linker removed
[1] = biological target: Gal(a1-3)Gal(b1-4)GlcNAc(b1-2)Man
Outline: (§1)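 The binding signal is a Z-score computed within each array and averaged over linkers. Arrays of the same protein sequence at different concentrations or buffers were also averaged together. Data originate from 3228 arrays in the Consortium for Functional Glycomics database, kept only where the protein sequence was available.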

[2] = biological target: Gal(a1-3)Gal(b1-4)GlcNAc(b1-2)Man(a1-3)[Gal(a1-3)Gal(b1-4)GlcNAc(b1-2)Man(a1-6)]Man(b1-4)GlcNAc(b1-4)GlcNAc
Outline: as §1

[3] = biological target: Gal(a1-3)Gal(b1-4)GlcNAc(b1-3)GalNAc
Outline: as §1

[4] = biological target: Gal(a1-3)Gal(b1-4)GlcNAc(b1-6)GalNAc
Outline: as §1

[5] = biological target: Gal(a1-3)Gal(b1-4)[Fuc(a1-3)]GlcNAc
Outline: as §1

[6] = biological target: Gal(a1-3)Gal(b1-4)[Fuc(a1-3)]GlcNAc(b1-2)Man(a1-3)[Gal(a1-3)Gal(b1-4)[Fuc(a1-3)]GlcNAc(b1-2)Man(a1-6)]Man(b1-4)GlcNAc(b1-4)GlcNAc
Outline: as §1

Gal(a1-3)GalNAc = biological target: Gal(a1-3)GalNAc
Outline: as §1

[7] = biological target: Gal(a1-3)[Gal(a1-4)]Gal(b1-4)GlcNAc
Outline: as §1

[8] = biological target: Gal(a1-4)Gal(b1-3)GlcNAc(b1-2)Man(a1-3)[Gal(a1-4)Gal(b1-3)GlcNAc(b1-2)Man(a1-6)]Man(b1-4)GlcNAc(b1-4)GlcNAc
Outline: as §1

Gal(a1-4)Gal(b1-4)Glc = biological target: Gal(a1-4)Gal(b1-4)Glc
Outline: as §1

Gal(a1-4)Gal(b1-4)GlcNAc = biological target: Gal(a1-4)Gal(b1-4)GlcNAc
Outline: as §1

[9] = biological target: Gal(a1-4)Gal(b1-4)GlcNAc(b1-2)Man(a1-3)[Gal(a1-4)Gal(b1-4)GlcNAc(b1-2)Man(a1-6)]Man(b1-4)GlcNAc(b1-4)GlcNAc
Outline: as §1

[10] = biological target: Gal(a1-4)Gal(b1-4)GlcNAc(b1-3)Gal(b1-4)Glc
Outline: as §1

Gal(a1-4)GlcNAc = biological target: Gal(a1-4)GlcNAc
Outline: as §1

Gal(a1-6)Glc = biological target: Gal(a1-6)Glc
Outline: as §1

Gal(b1-2)Gal = biological target: Gal(b1-2)Gal
Outline: as §1

Gal(b1-3)Gal = biological target: Gal(b1-3)Gal
Outline: as §1

Gal(b1-3)Gal(b1-4)GlcNAc = biological target: Gal(b1-3)Gal(b1-4)GlcNAc
Outline: as §1

Gal(b1-3)GalNAc = biological target: Gal(b1-3)GalNAc
Outline: as §1

[11] = biological target: Gal(b1-3)GalNAc(a1-3)[Fuc(a1-2)]Gal(b1-4)Glc
Outline: as §1

[12] = biological target: Gal(b1-3)GalNAc(a1-3)[Fuc(a1-2)]Gal(b1-4)GlcNAc
Outline: as §1

Gal(b1-3)GalNAc(b1-3)Gal = biological target: Gal(b1-3)GalNAc(b1-3)Gal
Outline: as §1

[13] = biological target: Gal(b1-3)GalNAc(b1-3)Gal(a1-4)Gal(b1-4)Glc
Outline: as §1

[14] = biological target: Gal(b1-3)GalNAc(b1-4)Gal(b1-4)Glc
Outline: as §1

[15] = biological target: Gal(b1-3)GalNAc(b1-4)[Neu5Ac(a2-3)]Gal(b1-4)Glc
Outline: as §1

Gal(b1-3)GlcNAc = biological target: Gal(b1-3)GlcNAc
Outline: as §1

[16] = biological target: Gal(b1-3)GlcNAc(a1-3)Gal(b1-4)GlcNAc
Outline: as §1

[17] = biological target: Gal(b1-3)GlcNAc(a1-6)Gal(b1-4)GlcNAc
Outline: as §1

Gal(b1-3)GlcNAc(b1-2)Man = biological target: Gal(b1-3)GlcNAc(b1-2)Man
Outline: as §1

[18] = biological target: Gal(b1-3)GlcNAc(b1-2)Man(a1-3)[Gal(b1-3)GlcNAc(b1-2)Man(a1-6)]Man(b1-4)GlcNAc(b1-4)GlcNAc
Outline: as §1

[19] = biological target: Gal(b1-3)GlcNAc(b1-2)Man(a1-3)[Gal(b1-3)GlcNAc(b1-2)Man(a1-6)]Man(b1-4)GlcNAc(b1-4)[Fuc(a1-6)]GlcNAc
Outline: as §1

[20] = biological target: Gal(b1-3)GlcNAc(b1-2)Man(a1-3)[GlcNAc(b1-4)][Gal(b1-3)GlcNAc(b1-2)Man(a1-6)]Man(b1-4)GlcNAc(b1-4)GlcNAc
Outline: as §1

[21] = biological target: Gal(b1-3)GlcNAc(b1-2)[Gal(b1-3)GlcNAc(b1-6)]Man(a1-6)[Gal(b1-3)GlcNAc(b1-2)Man(a1-3)]Man(b1-4)GlcNAc(b1-4)GlcNAc
Outline: as §1

[22] = biological target: Gal(b1-3)GlcNAc(b1-3)Gal(b1-3)GlcNAc
Outline: as §1

[23] = biological target: Gal(b1-3)GlcNAc(b1-3)Gal(b1-4)Glc
Outline: as §1

[24] = biological target: Gal(b1-3)GlcNAc(b1-3)Gal(b1-4)GlcNAc
Outline: as §1

[25] = biological target: Gal(b1-3)GlcNAc(b1-3)Gal(b1-4)GlcNAc(b1-2)Man(a1-3)[Gal(b1-3)GlcNAc(b1-3)Gal(b1-4)GlcNAc(b1-2)Man(a1-6)]Man(b1-4)GlcNAc(b1-4)GlcNAc
Outline: as §1

[26] = biological target: Gal(b1-3)GlcNAc(b1-3)Gal(b1-4)GlcNAc(b1-2)[Gal(b1-3)GlcNAc(b1-3)Gal(b1-4)GlcNAc(b1-6)]Man(a1-6)[Gal(b1-3)GlcNAc(b1-3)Gal(b1-4)GlcNAc(b1-2)Man(a1-3)]Man(b1-4)GlcNAc(b1-4)[Fuc(a1-6)]GlcNAc
Outline: as §1

[27] = biological target: Gal(b1-3)GlcNAc(b1-3)Gal(b1-4)GlcNAc(b1-3)Gal(b1-4)GlcNAc(b1-2)[Gal(b1-3)GlcNAc(b1-3)Gal(b1-4)GlcNAc(b1-3)Gal(b1-4)GlcNAc(b1-6)]Man(a1-6)[Gal(b1-3)GlcNAc(b1-3)Gal(b1-4)GlcNAc(b1-3)Gal(b1-4)GlcNAc(b1-2)Man(a1-3)]Man(b1-4)GlcNAc(b1-4)[Fuc(a1-6)]GlcNAc
Outline: as §1

[28] = biological target: Gal(b1-3)GlcNAc(b1-3)Gal(b1-4)GlcNAc(b1-6)[Gal(b1-3)GlcNAc(b1-3)]Gal(b1-4)Glc
Outline: as §1

[29] = biological target: Gal(b1-3)GlcNAc(b1-3)Gal(b1-4)[Fuc(a1-3)]GlcNAc
Outline: as §1

[30] = biological target: Gal(b1-3)GlcNAc(b1-3)Gal(b1-4)[Fuc(a1-3)]GlcNAc(b1-6)[Gal(b1-3)GlcNAc(b1-3)]Gal(b1-4)Glc
Outline: as §1

[31] = biological target: Gal(b1-3)GlcNAc(b1-3)GalNAc
Outline: as §1

[32] = biological target: Gal(b1-3)GlcNAc(b1-6)Gal(b1-4)GlcNAc
Outline: as §1

[33] = biological target: Gal(b1-3)GlcNAc(b1-6)GalNAc
Outline: as §1

B1: RBMC1 (Vibrio cholerae) (protein)
chain: QQSQRVVTADNLMYLRSGFAIDAIGTTVNNLVGGPVQGTNGGVLRAPIALDQLQSVEVTSGLYNWGGYHIVAIKFTMKDGSSVLLGSTHYASNKKVETYTVPQGKRIKQINVWTGGWLVEGFQFVY
glycan array binding signal (z-score) [1]: -0.326 | glycan array binding signal (z-score) [2]: 2.77 | glycan array binding signal (z-score) [3]: -0.282 | glycan array binding signal (z-score) [4]: -0.399 | glycan array binding signal (z-score) [5]: -0.359 | glycan array binding signal (z-score) [6]: 0.704 | glycan array binding signal (z-score) (Gal(a1-3)GalNAc): -0.237 | glycan array binding signal (z-score) [7]: -0.407 | glycan array binding signal (z-score) [8]: 1.41 | glycan array binding signal (z-score) (Gal(a1-4)Gal(b1-4)Glc): -0.141 | glycan array binding signal (z-score) (Gal(a1-4)Gal(b1-4)GlcNAc): -0.178 | glycan array binding signal (z-score) [9]: 3.8 | glycan array binding signal (z-score) [10]: -0.156 | glycan array binding signal (z-score) (Gal(a1-4)GlcNAc): -0.353 | glycan array binding signal (z-score) (Gal(a1-6)Glc): -0.397 | glycan array binding signal (z-score) (Gal(b1-2)Gal): -0.279 | glycan array binding signal (z-score) (Gal(b1-3)Gal): -0.323 | glycan array binding signal (z-score) (Gal(b1-3)Gal(b1-4)GlcNAc): -0.296 | glycan array binding signal (z-score) (Gal(b1-3)GalNAc): -0.3 | glycan array binding signal (z-score) [11]: -0.256 | glycan array binding signal (z-score) [12]: -0.309 | glycan array binding signal (z-score) (Gal(b1-3)GalNAc(b1-3)Gal): -0.237 | glycan array binding signal (z-score) [13]: -0.267 | glycan array binding signal (z-score) [14]: -0.362 | glycan array binding signal (z-score) [15]: -0.362 | glycan array binding signal (z-score) (Gal(b1-3)GlcNAc): -0.37 | glycan array binding signal (z-score) [16]: -0.31 | glycan array binding signal (z-score) [17]: -0.216 | glycan array binding signal (z-score) (Gal(b1-3)GlcNAc(b1-2)Man): -0.204 | glycan array binding signal (z-score) [18]: 2.48 | glycan array binding signal (z-score) [19]: 0.912 | glycan array binding signal (z-score) [20]: -0.049 | glycan array binding signal (z-score) [21]: -0.266 | glycan array binding signal (z-score) [22]: -0.311 | glycan array binding signal (z-score) [23]: -0.362 | glycan array binding signal (z-score) [24]: -0.406 | glycan array binding signal (z-score) [25]: 1.19 | glycan array binding signal (z-score) [26]: 0.194 | glycan array binding signal (z-score) [27]: -0.138 | glycan array binding signal (z-score) [28]: -0.289 | glycan array binding signal (z-score) [29]: -0.382 | glycan array binding signal (z-score) [30]: -0.397 | glycan array binding signal (z-score) [31]: -0.347 | glycan array binding signal (z-score) [32]: -0.11 | glycan array binding signal (z-score) [33]: -0.334
